The campaign covered roughly 48,000 compounds. About 450 (0.94%) were called active. Another 19% or so got no clear call; they are omitted. Calls come from the whole dose curve; as a rule, active = well fitted inhibition curve with a large enough effect; inconclusive = small, poorly fitted or top-dose-only effect; inactive = no such curve, though single readings can be large or run the other way. The list shows a part of the results.
Assay: Primary qHTS for Identification of Small Molecule Inhibitors of Huntingtin Promoter Activity; note: nearly all actives have a fitted effect of over 50% in size
Settings: HEK293 HTT promoter firefly luciferase reporter (activity 0% = vehicle and -100% = no light), 24 h; series mostly up to 57.5 µM; activity change, negative = inhibition: at the top concentration
Procedure, shortened: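 Firefly luciferase signal from promoter-reporter HEK293 cells was scaled between vehicle (0%) and zero RLU (-100%). Compounds were tested at final concentrations of up to 57.5 uM over 24 h at 37 degrees C. PTC124 at 50 uM final served as control inhibitor.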
Potency is the fitted concentration of half-maximal effect.

Structure (SMILES) | activity change, negative = inhibition | Potency
CCc1ccc(C=C2SC(=S)NC2=O)cc1 | inactive: 29.9% | 
O=C(c1cc2c(s1)-c1ccccc1OC2)N1CCN(c2ccc(F)cc2)CC1 | inactive: -23.9% | 
CC1CCC(NC(=O)Cn2ncc3c4ccccc4n(Cc4ccc(F)cc4)c3c2=O)CC1 (stereo not drawn) | inactive: -9.41% | 
Cc1ccc(CN(C(=O)COc2ccc([N+](=O)[O-])cc2)c2ccccn2)o1 | inactive: -28.5% | 
Cc1ccc(Nc2ncc(C(=O)Nc3ccc(F)cc3F)c3ccccc23)cc1Cl | inactive: -13% | 
CC(=O)c1ccc(NC(=O)CSc2ccc3nnc(CCNS(=O)(=O)c4ccc(C)cc4)n3n2)cc1 | inactive: 0.315% | 
CC(=O)c1cccc(NC(=O)C2CCN(S(=O)(=O)c3ccccc3)CC2)c1 | inactive: -22.1% | 
COc1ccc(CNC(=O)c2nn(C)c3c2CS(=O)(=O)c2ccccc2-3)cc1 | inactive: -11.2% | 
O=C(COc1ccccc1)Nc1nnc(SCc2cc(=O)n3cc(Cl)ccc3n2)s1 | inactive: 8.14% | 
CC1=C(C(=O)O)N2C(=O)[C@@H](NC(=O)[C@H](N)c3ccccc3)[C@H]2SC1 | inactive: 14.7% | 
COc1ccc(CCNC(=O)CCS(=O)(=O)c2cc3c(cc2Cl)NC(=O)CO3)cc1OC | inactive: 5.72% | 
CCc1nnc(SCC(=O)Nc2cccc(C(F)(F)F)c2)c2cc3oc(C)cc3n12 | inactive: -27.9% | 
CCOC(=O)Cc1c(C)nc2c(-c3ccc(Cl)cc3)c(C(F)(F)F)nn2c1C | inactive: -28.5% | 
Cc1oc(-c2ccccc2Cl)nc1CS(=O)(=O)CC(=O)NC(C)c1ccccc1 (stereo not drawn) | inactive: -26.9% | 
Cc1ccc2onc(CNC(=O)NCc3ccccc3)c2c1 | inactive: 7.74% | 
CCC(C(=O)Nc1ccccc1OC)n1c(C(=O)OC)cc2sc(Cl)cc21 (stereo not drawn) | inactive: -29.8% | 
CCOCCCNC(=O)c1ccc2c(=O)n(CCc3ccc(OC)c(OC)c3)c(=O)[nH]c2c1 | inactive: -22.2% | 
CC(=O)N1CCc2cc(S(=O)(=O)NC(CC(C)C)C(=O)NCCc3cccc(C)c3)ccc21 (stereo not drawn) | inactive: -5.37% | 
CCOc1ccccc1CNC(=O)CSc1nnc(C)c2c(C)n(-c3ccccc3)nc12 | inactive: -12.8% | 
Cc1ccc(NC(=O)CC2Oc3ccccc3NC2=O)cc1C (stereo not drawn) | inactive: 0.965% | 
Cc1c(C(=O)NCc2cccc(Cl)c2)sc2nc3n(c(=O)c12)CCCC3 | inactive: 20.1% | 
COc1ccc(CCNC(=O)CN2C(=O)COc3ccc(S(=O)(=O)N4CCCC4)cc32)c(OC)c1 | inactive: -27% | 
Cc1c(C(=O)NCc2cccc(Br)c2)oc2ccc3c(c12)C(=O)CC(C)(C)O3 | inactive: -8.56% | 
CCN(CC)CCCNC(=O)c1ccc(Cn2c(SCc3ccccc3)nc3cccnc32)cc1 | inactive: 24.1% | 
Cn1c(=O)n(Cc2c(F)cccc2Cl)c(=O)c2c1nc1n2CCN1c1ccc(F)cc1 | inactive: -1.17% | 

Structure (SMILES) | activity change, negative = inhibition | Potency
Nc1nn(-c2ccccc2)nc1C(=O)OCc1ccc(Cl)cc1 | inactive: 3.95% | 
COc1c(C)cccc1C(=O)Nc1ccc(-c2nc3ccccc3s2)c(Cl)c1 | inactive: -9.49% | 
CC1=C(C(=O)NCc2ccccc2F)C2(CCCCC2)OC1=O | inactive: -10.7% | 
Cc1ccc(CCNC(=O)C2CCCN(c3nnc(C)c4c(C)n(-c5ccccc5)nc34)C2)cc1 (stereo not drawn) | inactive: -1.91% | 
COc1ccc(-c2cn3nc(N4CCCC(C(=O)NCc5ccc(Cl)cc5)C4)sc3n2)cc1 (stereo not drawn) | inactive: 37% | 
O=C(Nc1ccccc1Cl)N1CCC(CN2CCCC2)CC1 | inactive: -17.7% | 
COc1cccc(-c2nc(CS(=O)(=O)CC(=O)NCc3cccc(Cl)c3)c(C)o2)c1 | inactive: -13.8% | 
Cc1ccc(CSc2ncc(Cl)c(C(=O)Nc3nnc(C)s3)n2)cc1 | inactive: -19.7% | 
COc1cc2ncc3c(-c4ccc(C)cc4)nn(-c4ccc(F)cc4F)c3c2cc1OC | inactive: 9.61% | 
CN(C)CCCNc1cc(N2CCN(C3CCCCC3)CC2)c2noc3c2c1C(=O)c1ccccc1-3 | inactive: -3.26% | 
Cc1ccc(NC(=O)CN2C(=O)c3cccnc3Oc3ccc(Cl)cc32)cc1 | inactive: -18.8% | 
CCOC(=O)c1c(C)n(-c2ccccc2)c2ccc(OC(=O)COc3ccc(Cl)cc3)cc12 | inactive: -6.98% | 
Cc1ccn2c(Nc3ccc4c(c3)OCCO4)c(-c3ccc(C)o3)nc2c1 | inactive: 38.7% | 
Cc1cc(Nc2ccccc2C)n2nc(Cc3ccc(Cl)cc3)nc2n1 | inactive: -14.7% | 
Cc1c(C(=O)NCc2ccccc2Cl)sc2ncnc(N(C)C3CCCCC3)c12 | inactive: -38.5% | 
CCNC(=O)C1CCN(S(=O)(=O)c2ccc3c(c2)CCCN3C(C)=O)CC1 | inactive: -9.93% | 
CCOc1cc(C(=O)Nc2ccc(-c3cn4cccnc4n3)cc2)cc(OCC)c1OCC | inactive: -18.2% | 
O=C(NCc1ccccc1)c1ccc(NC(=O)N2CC3CCCN3c3ccccc32)cc1 (stereo not drawn) | inactive: -21.5% | 
Cn1c(=O)oc2cc(S(=O)(=O)CCC(=O)N3CCN(c4cccc(Cl)c4)CC3)ccc21 | inactive: 30.3% [at 11.5 µM] | 
Cc1ccc(S(=O)(=O)c2nnn3c2nc(NCc2ccc4c(c2)OCO4)c2sccc23)cc1C | inactive: -28.6% | 
Cc1nc2ccccn2c(=O)c1NC(=O)c1ccc(F)c(F)c1 | inactive: 6.34% | 
Cc1cccc(NC(=O)C2CCCN2S(=O)(=O)c2ccc3nc(-c4ccccc4)[nH]c3c2)c1 (stereo not drawn) | inactive: -24.4% | 
Cc1ccc2c(c1)c1c(c(=O)n(-c3ccccc3)c(=O)n1CC(=O)NCC1CCCO1)n2C (stereo not drawn) | inactive: 1.21% | 
O=c1n(Cc2ccccc2Cl)c2ccccc2c2nc(-c3ccccc3)nn12 | inactive: 1.4% | 
Cc1nn2c(=O)cc(COC(=O)c3ccc(NC(=O)COc4ccc(C)c(C)c4)cc3)nc2s1 | inactive: -11% | 

Structure (SMILES) | activity change, negative = inhibition | Potency
COC(=O)C(C)Sc1ccc2nnc(CCNS(=O)(=O)c3ccc(C)cc3)n2n1 (stereo not drawn) | inactive: -5.74% | 
Cc1ccc(C)c(NC(=O)n2ncc3cc(Cl)ccc32)c1 | inactive: 20.3% | 
Cc1ncc(CO)c2c1Oc1nc(-c3ccccc3Cl)nc(SCc3ccccc3F)c1C2 | inactive: -29.4% | 
COCCCNC(=O)Cn1cnc2sc(C)c(S(=O)(=O)N3CCC(C)CC3)c2c1=O | inactive: -8.85% | 
CC(C)NC(=O)c1ccc(Cn2c(SCC(N)=O)nc3ccccc3c2=O)cc1 | inactive: -1.74% | 
COc1ccc2nc(N(Cc3cccnc3)C(C)=O)sc2c1 | inactive: -12.2% | 
COc1cc(Cl)c(C)cc1Nc1nc2ccccc2c2nnc(C)n12 | inactive: 5.9% | 
COC(=O)c1cc2oc(C)cc2n1Cc1ccc(Br)cc1F | inactive: 4.14% | 
COC(=O)c1ccc(NC(=O)CSc2ccc(-c3sc(-c4ccccc4)nc3C)nn2)cc1 | inactive: -4.93% | 
CCC(Oc1ccccc1-c1nnc(-c2ccccc2)o1)C(=O)Nc1ccc(C(C)=O)cc1 (stereo not drawn) | inactive: -15% | 
CCc1ccc(-n2c(=O)c3cccnc3n2CC(=O)NCc2ccccc2)cc1 | inactive: -18.3% | 
O=C(NC1CC(=O)N(c2ccc(F)cc2)C1)c1ccco1 (stereo not drawn) | inactive: 19.8% | 
COc1ccc(Nc2ncc3c(n2)CCN(Cc2ccccc2C)C3)c(OC)c1 | inactive: -3.1% | 
COC(=O)c1c(C)oc2ccc(N(C(=O)c3ccncc3)S(=O)(=O)c3ccc(OC)cc3)cc12 |  | active: 2.24 µM
O=C(Nc1cccc(C(F)(F)F)c1)c1ccc2c(c1)nnn2C1CCCC1 | inactive: -0.499% | 
CCc1ccc(-n2c(=O)c3c4c(sc3n(Cc3ccccc3C#N)c2=O)CCC4)cc1 | inactive: -4.91% | 
COc1ccc(S(=O)(=O)NCCc2nnc3ccc(SCC(=O)Nc4ccccc4C)nn23)cc1 | inactive: -14.3% | 
COc1ccc(-c2nc3sc(CCNC(=O)c4ccco4)c(C)n3n2)cc1 | inactive: 33.6% | 
CCS(=O)(=O)Nc1ccc(-c2cn3ccsc3n2)cc1 | inactive: 67.3% | 
COc1cc2c(cc1OC)CN(C(=O)Nc1ccccc1)CC2 | inactive: -18.6% | 
CN(C)c1ccc(CNS(=O)(=O)c2ccc(-c3cc(C(F)(F)F)on3)s2)cc1 | inactive: -5.2% | 
Cc1cccc(N2CCN(S(=O)(=O)c3c(C)nc4scc(C)n4c3=O)CC2)c1C | inactive: -27% | 
COc1ccccc1NC(=O)c1ccc(COc2ccc(C)c(C)c2)o1 | inactive: -5.49% | 
CCCCn1c(=O)c2oc3ccccc3c2n(CC(=O)Nc2ccc(CC)cc2)c1=O | inactive: -10.7% | 
CCn1cc2nc(SCc3cc(C)ccc3C)n(CCc3ccccc3)c(=O)c2n1 | inactive: 0.924% | 

Structure (SMILES) | activity change, negative = inhibition | Potency
CCCCn1c(=N)n(CCCOc2ccc(F)cc2)c2ccccc21 | inactive: -30.2% | 
Cn1c(=O)c2c(nc(N3CCOCC3)n2Cc2ccccc2Cl)n(C)c1=O | inactive: -15% | 
COCCCNC(=O)CCCn1c(=O)c2ccccc2n(CC(=O)Nc2ccc(C)cc2Cl)c1=O | inactive: -3.21% | 
CC(C)Cn1c(-c2ccccc2Cl)nc2ccccc21 | inactive: 15.3% | 
O=C(NCCc1ccc(Cl)cc1)c1nnc(Cc2ccc(Cl)cc2Cl)o1 | inactive: -10.1% | 
CCOc1ccc(-c2c(C)nn3c(C)c(C(=O)NCCN(C)C)cnc23)cc1OCC | inactive: -9.14% | 
Cc1nc(S(=O)(=O)N2CCN(c3cccc(Cl)c3)CC2)cn1C | inactive: -3.41% | 
O=C(NCCc1ccc(Cl)cc1)c1ccc2nc(CCc3ccccc3)oc2c1 | inactive: 17% | 
COc1cc(OC)cc(-c2nnc(SCC(=O)c3ccc([N+](=O)[O-])cc3)o2)c1 | inactive: -11.5% | 
O=C(CSc1nncn2c1cc1occc12)Nc1ccc(F)c(Cl)c1 | inactive: -4.47% | 
COc1ccc(N(CC(=O)NCCc2ccc(C)cc2)S(=O)(=O)c2c(C)nn(C)c2C)cc1 | inactive: -14.8% | 
COc1cc(Nc2nn(-c3ccc(OC(F)(F)F)cc3)nc2C(C)=O)cc(OC)c1 | inactive: -0.504% | 
CCOC(=O)c1cc(-c2ccc(OC)cc2)n(CCC(=O)Nc2cccc(C)c2C)c1C | inactive: -18.1% | 
CCCCc1nn2c(=O)cc(COC(=O)c3ccc4c(c3)OCO4)nc2s1 | inactive: -12.6% | 
COc1cc(OC)cc(-n2c(=O)c3ccccc3n(Cc3ccccc3C#N)c2=O)c1 | inactive: -15.6% | 
CCC(=O)Nc1cc(-c2cn3cccnc3n2)ccc1OC | inactive: 8.91% | 
CC1=C(C(=O)Nc2ccccc2)C(C(C)C)n2nc(SCc3ccccc3C)nc2N1 (stereo not drawn) | inactive: 7.09% | 
OCC(O)C(O)C(O)CO (stereo not drawn) | inactive: -7.93% | 
CCc1ccc(NC(=O)Cn2nc(C(F)(F)F)c3c2CCCC3)cc1 | inactive: -21.2% | 
O=C(Cn1ncn2cccc2c1=O)NCc1cccc(Br)c1 | inactive: 60.4% | 
Cc1c(Cl)cccc1NC(=O)Cn1c(=O)cc(C)c2c(C)nn(-c3cccc(F)c3)c21 | inactive: 7.69% | 
COc1ccc(NC(=O)c2cc(-c3ccc(F)cc3)no2)cc1OC | inactive: -9.37% | 
COc1ccccc1Cc1nc2ccccc2nc1SCC(=O)Nc1c(C)cccc1C | inactive: -13.2% | 

Reference: PubChem BioAssay AID1508623 (National Center for Advancing Translational Sciences (NCATS), 2021)
